Assay results published in the supplement of paper PMC8007513.
Structures can show the parent of a compound that is named as a salt. ± gives the standard error. Among all 1,300 compounds or so, about 130 (10%) showed an effect of 50% or more. Only a part is listed here, and it is no random draw.

Tested on: Trichoderma virens ATCC 9645
Assay: growth yield (OD600) with compound + IPBC relative to untreated control; higher = less growth inhibition
Details: compound concentration: 100 uM, IPBC concentration: 200 ng/ml
How it was run: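 Trichoderma virens ATCC 9645 spores at 15,000 spores ml^−1 in potato dextrose broth were exposed in 96-well plates to library compounds at 100 μM final, with or without a biocide at 200 ng ml^−1. After growth at 30 °C, OD600 was read at 40 h and 72 h. Values are growth relative to the control without either agent, averaged over duplicate screens.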

| SMILES | growth yield (40 h) [%] | growth yield (72 h) [%] |
| --- | --- | --- |
| CN(C)CCc1c[nH]c2ccc(C[C@H]3COC(=O)N3)cc12 [Zolmitriptan] + CCCCNC(=O)OCC#CI [3-iodo-2-propynyl butylcarbamate (IPBC)] | 93.2 ± 4 | 96.3 ± 4 |
| O=c1[nH]c(=O)n([C@H]2C[C@H](O)[C@@H](CO)O2)cc1F [Floxuridine] + CCCCNC(=O)OCC#CI [3-iodo-2-propynyl butylcarbamate (IPBC)] | 4.45 | 19.1 ± 2.3 |
| CNNCc1ccc(C(=O)NC(C)C)cc1 [Procarbazine hydrochloride] + CCCCNC(=O)OCC#CI [3-iodo-2-propynyl butylcarbamate (IPBC)] | 93.4 ± 2.5 | 90.2 ± 1.3 |
| COc1cc2nc(N3CCN(C(=O)C4CCCO4)CC3)nc(N)c2cc1OC (centres undefined) [Terazosin hydrochloride] + CCCCNC(=O)OCC#CI [3-iodo-2-propynyl butylcarbamate (IPBC)] | 93.1 ± 3.2 | 95.02 ± 0.84 |
| Nc1ccc(S(=O)(=O)Nc2ccc(Cl)nn2)cc1 [Sulfachloropyridazine] + CCCCNC(=O)OCC#CI [3-iodo-2-propynyl butylcarbamate (IPBC)] | 92.1 ± 6 | 92.9 ± 7.5 |
| C#C[C@]1(O)CC[C@H]2[C@@H]3[C@H](C)CC4=C(CCC(=O)C4)[C@H]3CC[C@@]21C [Tibolone] + CCCCNC(=O)OCC#CI [3-iodo-2-propynyl butylcarbamate (IPBC)] | 80.1 ± 2.9 | 90.09 ± 0.1 |
| CO[C@]12C[C@@H](COC(=O)c3cncc(Br)c3)CN(C)[C@@H]1Cc1cn(C)c3cccc2c13 [Nicergoline] + CCCCNC(=O)OCC#CI [3-iodo-2-propynyl butylcarbamate (IPBC)] | 74.2 ± 8.4 | 93 ± 5.3 |
| CC(=O)OCC(=O)[C@@]1(O)CC[C@H]2[C@@H]3CCC4=CC(=O)C=C[C@]4(C)[C@@]3(F)[C@@H](O)C[C@@]21C [Isoflupredone acetate] + CCCCNC(=O)OCC#CI [3-iodo-2-propynyl butylcarbamate (IPBC)] | 87.8 ± 2.1 | 91.7 ± 1.1 |
| COc1cc(C(=O)N2CCOCC2)cc(OC)c1OC [Trimetozine] + CCCCNC(=O)OCC#CI [3-iodo-2-propynyl butylcarbamate (IPBC)] | 110 ± 8.4 | 103 ± 7.5 |
| CCC(=O)[C@@]1(C)[C@H](C)C[C@H]2[C@@H]3CCC4=CC(=O)C=C[C@]4(C)[C@H]3[C@@H](O)C[C@@]21C [Rimexolone] + CCCCNC(=O)OCC#CI [3-iodo-2-propynyl butylcarbamate (IPBC)] | 102 ± 6.7 | 99.1 ± 7.7 |
| CC(=O)Nc1c(I)c(NC(C)=O)c(I)c(C(=O)O)c1I [Diatrizoic acid dihydrate] + CCCCNC(=O)OCC#CI [3-iodo-2-propynyl butylcarbamate (IPBC)] | 87.52 ± 0.48 | 89.5 ± 1.8 |
| CN(N=O)C(=O)N[C@@H](C=O)[C@@H](O)[C@H](O)[C@H](O)CO [Streptozotocin] + CCCCNC(=O)OCC#CI [3-iodo-2-propynyl butylcarbamate (IPBC)] | 102 ± 6 | 105 ± 6.1 |
| O=C(N/N=C/c1ccc([N+](=O)[O-])o1)c1ccc(O)cc1 [Nifuroxazide] + CCCCNC(=O)OCC#CI [3-iodo-2-propynyl butylcarbamate (IPBC)] | 85.8 ± 7.9 | 87.6 ± 3.5 |
| CC(C)C[C@H](CN)CC(=O)O [Pregabalin] + CCCCNC(=O)OCC#CI [3-iodo-2-propynyl butylcarbamate (IPBC)] | 85.3 ± 0.79 | 89.14 ± 0.21 |
| CC(C)(O/N=C(\C(=O)N[C@@H]1C(=O)N2C(C(=O)[O-])=C(C[n+]3ccccc3)CS[C@H]12)c1csc(N)n1)C(=O)O [Ceftazidime pentahydrate] + CCCCNC(=O)OCC#CI [3-iodo-2-propynyl butylcarbamate (IPBC)] | 90.7 ± 0.79 | 95.75 ± 0.52 |
| Cc1c(Cl)cccc1Nc1ncccc1C(=O)O [Clonixin Lysinate] + CCCCNC(=O)OCC#CI [3-iodo-2-propynyl butylcarbamate (IPBC)] | 79.4 ± 5.7 | 95 ± 3.6 |
| CC(C)(C)NCC(O)c1ccccc1Cl (centres undefined) [Tulobuterol] + CCCCNC(=O)OCC#CI [3-iodo-2-propynyl butylcarbamate (IPBC)] | 101 ± 5.7 | 104 ± 7 |
| C[C@H]1[C@H](NC(=O)/C(=N\OC(C)(C)C(=O)O)c2csc(N)n2)C(=O)N1S(=O)(=O)O [Aztreonam] + CCCCNC(=O)OCC#CI [3-iodo-2-propynyl butylcarbamate (IPBC)] | 87.52 ± 0.48 | 95.86 ± 0.42 |
| CCc1c2c(nc3ccc(OC(=O)N4CCC(N5CCCCC5)CC4)cc13)-c1cc3c(c(=O)n1C2)COC(=O)[C@]3(O)CC [Irinotecan hydrochloride trihydrate] + CCCCNC(=O)OCC#CI [3-iodo-2-propynyl butylcarbamate (IPBC)] | 91.7 ± 2.4 | 98.6 ± 2.9 |

| SMILES | growth yield (40 h) [%] | growth yield (72 h) [%] |
| --- | --- | --- |
| CS(=O)(=O)Nc1ccc([N+](=O)[O-])cc1Oc1ccccc1 [Nimesulide] + CCCCNC(=O)OCC#CI [3-iodo-2-propynyl butylcarbamate (IPBC)] | 75.1 ± 1.8 | 89.5 ± 2 |
| CCn1cc(C(=O)O)c(=O)c2cc(F)c(N3CCNC(C)C3)c(F)c21 (centres undefined) [Lomefloxacin hydrochloride] + CCCCNC(=O)OCC#CI [3-iodo-2-propynyl butylcarbamate (IPBC)] | 87.4 ± 8.3 | 96.3 ± 6.5 |
| CNC(=C[N+](=O)[O-])NCCSCc1csc(CN(C)C)n1 [Nizatidine] + CCCCNC(=O)OCC#CI [3-iodo-2-propynyl butylcarbamate (IPBC)] | 88.31 ± 0.64 | 93.86 ± 0.32 |
| CC(C)CN(C[C@@H](O)[C@H](Cc1ccccc1)NC(=O)O[C@H]1CCOC1)S(=O)(=O)c1ccc(N)cc1 [Amprenavir] + CCCCNC(=O)OCC#CI [3-iodo-2-propynyl butylcarbamate (IPBC)] | 129 ± 5.2 | 124 ± 2.1 |
| C[C@]12C=CC(=O)C=C1CC[C@@H]1[C@@H]2C(=O)C[C@@]2(C)[C@H]1CC[C@]2(O)C(=O)CO [Prednisone] + CCCCNC(=O)OCC#CI [3-iodo-2-propynyl butylcarbamate (IPBC)] | 90.9 ± 1.9 | 91.5 ± 1.3 |
| C[C@]12Cc3c[nH]nc3C[C@@H]1CC[C@@H]1[C@@H]2CC[C@@]2(C)[C@H]1CC[C@]2(C)O [Stanozolol] + CCCCNC(=O)OCC#CI [3-iodo-2-propynyl butylcarbamate (IPBC)] | 91.02 ± 0.16 | 95.9 |
| C[C@@H]1CN(c2c(F)c(N)c3c(=O)c(C(=O)O)cn(C4CC4)c3c2F)C[C@H](C)N1 [Sparfloxacin] + CCCCNC(=O)OCC#CI [3-iodo-2-propynyl butylcarbamate (IPBC)] | 83.4 ± 2.1 | 86.8 ± 1.9 |
| CCn1cc(C(=O)O)c(=O)c2cc(F)c(N3CCN(C)CC3)cc21 [Pefloxacine] + CCCCNC(=O)OCC#CI [3-iodo-2-propynyl butylcarbamate (IPBC)] | 98 ± 14 | 98.5 ± 10 |
| CC(C)NCC(O)c1ccc(NS(C)(=O)=O)cc1 (centres undefined) [Sotalol hydrochloride] + CCCCNC(=O)OCC#CI [3-iodo-2-propynyl butylcarbamate (IPBC)] | 107 ± 1.8 | 103 ± 2.7 |
| CC(=O)N1CCN(c2ccc(OCC3COC(Cn4ccnc4)(c4ccc(Cl)cc4Cl)O3)cc2)CC1 (centres undefined) [Ketoconazole] + CCCCNC(=O)OCC#CI [3-iodo-2-propynyl butylcarbamate (IPBC)] | 3.34 ± 0.48 | 2.52 ± 0.42 |
| CCN(CC)CCCC(C)Nc1c2ccc(Cl)cc2nc2ccc(OC)cc12 (centres undefined) [Quinacrine dihydrochloride hydrate] + CCCCNC(=O)OCC#CI [3-iodo-2-propynyl butylcarbamate (IPBC)] | 64.8 ± 12 | 92.3 ± 2.9 |
| CCCCCCCCCCCCCCCC[N+](C)(C)CCN(Cc1ccc(OC)cc1)c1ncccn1 [Thonzonium bromide] + CCCCNC(=O)OCC#CI [3-iodo-2-propynyl butylcarbamate (IPBC)] | 3.34 ± 0.16 | 2.62 ± 0.1 |
| C[C@@H]1CC[C@H]2[C@@H](C)C(=O)O[C@@H]3O[C@@]4(C)CC[C@@H]1[C@]32OO4 [Artemisinin] + CCCCNC(=O)OCC#CI [3-iodo-2-propynyl butylcarbamate (IPBC)] | 32.4 ± 1.3 | 76.3 ± 1.1 |
| COC(=O)[C@H]1[C@H]2C[C@@H]3c4[nH]c5cc(OC)ccc5c4CCN3C[C@H]2C[C@@H](OC(=O)c2cc(OC)c(OC)c(OC)c2)[C@@H]1OC [Reserpine] + CCCCNC(=O)OCC#CI [3-iodo-2-propynyl butylcarbamate (IPBC)] | 102 ± 3.2 | 104 ± 2 |
| CNC(=C[N+](=O)[O-])NCCSCc1ccc(CN(C)C)o1 [Ranitidine hydrochloride] + CCCCNC(=O)OCC#CI [3-iodo-2-propynyl butylcarbamate (IPBC)] | 107 ± 1.4 | 109 ± 2.7 |
| CC(C)C[C@H](NC(=O)[C@@H](O)[C@H](N)Cc1ccccc1)C(=O)O [Ubenimex] + CCCCNC(=O)OCC#CI [3-iodo-2-propynyl butylcarbamate (IPBC)] | 111 ± 3.8 | 102 ± 2.3 |
| CCOC(=O)Nc1ccc2c(c1)N(C(=O)CCN1CCOCC1)c1ccccc1S2 [Moricizine hydrochloride] + CCCCNC(=O)OCC#CI [3-iodo-2-propynyl butylcarbamate (IPBC)] | 81 ± 2.9 | 91.7 ± 1.9 |
| C[C@@H](c1ncncc1F)[C@](O)(Cn1cncn1)c1ccc(F)cc1F [Voriconazole] + CCCCNC(=O)OCC#CI [3-iodo-2-propynyl butylcarbamate (IPBC)] | 5.24 ± 0.16 | 4.09 ± 0.1 |
